{
  "source": "paper PMC4336329",
  "about": "(PLoS ONE, 2015)",
  "note": "In all, about 310,000 compounds went through this assay and about 2,200 (0.71%) showed an effect of 50% or more. Effects have a minus sign here. The list shows a part of the results.",
  "data": [
    {"biological_target": "human ether-à-go-go-related gene (hERG) potassium channel (human, UniProt Q12809)", "sequence (Q12809 whole entry, looked up)": "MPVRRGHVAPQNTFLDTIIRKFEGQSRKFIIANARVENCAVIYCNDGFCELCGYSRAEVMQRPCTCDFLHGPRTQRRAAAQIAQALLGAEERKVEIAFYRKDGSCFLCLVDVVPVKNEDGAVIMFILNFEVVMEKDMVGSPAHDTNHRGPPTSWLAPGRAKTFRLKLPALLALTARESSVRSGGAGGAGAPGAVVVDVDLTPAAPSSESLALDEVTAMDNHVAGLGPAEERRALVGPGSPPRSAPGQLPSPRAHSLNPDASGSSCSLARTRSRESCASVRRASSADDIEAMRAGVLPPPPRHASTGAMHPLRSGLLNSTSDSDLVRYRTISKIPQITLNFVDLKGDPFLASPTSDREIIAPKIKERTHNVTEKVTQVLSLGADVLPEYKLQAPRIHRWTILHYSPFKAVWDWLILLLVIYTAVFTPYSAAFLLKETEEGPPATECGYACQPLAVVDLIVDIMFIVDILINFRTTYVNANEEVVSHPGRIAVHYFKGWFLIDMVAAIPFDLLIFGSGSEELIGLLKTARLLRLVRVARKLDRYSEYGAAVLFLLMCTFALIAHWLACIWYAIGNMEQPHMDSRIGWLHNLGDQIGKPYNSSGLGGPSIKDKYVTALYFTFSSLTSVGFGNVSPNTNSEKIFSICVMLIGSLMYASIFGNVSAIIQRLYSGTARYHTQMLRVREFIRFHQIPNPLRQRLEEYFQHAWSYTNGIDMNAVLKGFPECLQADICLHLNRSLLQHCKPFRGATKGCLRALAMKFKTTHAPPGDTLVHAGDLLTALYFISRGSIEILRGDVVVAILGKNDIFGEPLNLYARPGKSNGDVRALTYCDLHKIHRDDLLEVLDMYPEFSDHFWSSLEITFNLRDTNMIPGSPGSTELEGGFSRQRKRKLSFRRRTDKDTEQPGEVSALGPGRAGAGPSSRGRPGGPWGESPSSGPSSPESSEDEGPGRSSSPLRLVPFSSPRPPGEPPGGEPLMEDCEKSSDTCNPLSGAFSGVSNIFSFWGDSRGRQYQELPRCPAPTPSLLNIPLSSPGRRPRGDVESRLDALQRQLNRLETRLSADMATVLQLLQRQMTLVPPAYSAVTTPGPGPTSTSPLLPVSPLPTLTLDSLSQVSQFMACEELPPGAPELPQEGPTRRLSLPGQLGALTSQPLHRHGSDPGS", "experiment": "primary screen, population patch clamp on CHO cells stably expressing hERG", "units": {"hERG current change (%, negative = inhibition) at 1uM": "%"}, "values": [
      {"smiles": "COc1ccc(C(=O)NC2CC2)cc1OC1CCN(Cc2cnn(C)c2)CC1", "hERG current change (%, negative = inhibition) at 1uM": 6.61},
      {"smiles": "COC(=O)COc1ccc(/C=C2/NC(=O)N(CC(=O)OC)C2=O)cc1", "hERG current change (%, negative = inhibition) at 1uM": 12.6},
      {"smiles": "CS(=O)(=O)N1CCN(c2ccccc2NC(=O)Nc2cccc(Cl)c2)CC1", "hERG current change (%, negative = inhibition) at 1uM": 18},
      {"smiles": "CCOC(=O)C1CCCN(C(=O)CCNC(=O)Cn2ccc3ccccc3c2=O)C1", "note": "(centres unmarked)", "hERG current change (%, negative = inhibition) at 1uM": 3.13},
      {"smiles": "CN(c1cccc(NC(=O)c2ccc(N(C)S(=O)(=O)c3ccccc3)cc2)c1)S(C)(=O)=O", "hERG current change (%, negative = inhibition) at 1uM": 12.4},
      {"smiles": "O=C(CNc1cccc(S(=O)(=O)N2CCCC2)c1)Nc1ccc(F)c(F)c1", "hERG current change (%, negative = inhibition) at 1uM": 19.2},
      {"smiles": "CC(C)(C)c1ccc(OCc2ccc(C(=O)Nc3cccnc3)o2)cc1", "hERG current change (%, negative = inhibition) at 1uM": 6.81},
      {"smiles": "Cn1c(O)c(C=NCCCC(=O)O)c(=O)n(C)c1=O", "hERG current change (%, negative = inhibition) at 1uM": -0.766},
      {"smiles": "O=C(CNc1cccc(S(=O)(=O)N2CCOCC2)c1)Nc1ccc(C(F)(F)F)cc1", "hERG current change (%, negative = inhibition) at 1uM": -24.3},
      {"smiles": "O=C1c2c(O)cc(O)cc2O[C@H](c2ccc(O)cc2)[C@H]1O", "hERG current change (%, negative = inhibition) at 1uM": 14.8},
      {"smiles": "Cc1ccc(S(=O)(=O)Nc2cc(S(=O)(=O)N3CCOCC3)ccc2NCC2CCCO2)cc1", "note": "(centres unmarked)", "hERG current change (%, negative = inhibition) at 1uM": 8.59},
      {"smiles": "O=C(OCC(=O)N1CCN(c2ccccc2)CC1)c1ccncc1", "hERG current change (%, negative = inhibition) at 1uM": 4.53},
      {"smiles": "Cc1nn(-c2ccccc2)c(=S)c2ccccc12", "hERG current change (%, negative = inhibition) at 1uM": 11.4},
      {"smiles": "Cc1cc(NC(=O)c2cnn3c(C(F)F)cc(C4CC4)nc23)no1", "hERG current change (%, negative = inhibition) at 1uM": 3.33},
      {"smiles": "CCOC(=O)c1c(-c2ccccc2)oc2ccc(OCC(=O)NNC(=O)CCCC(=O)O)cc12", "hERG current change (%, negative = inhibition) at 1uM": 15},
      {"smiles": "CN(C)c1ccc(-c2nnn(CC(=O)N3c4ccccc4CCc4ccccc43)n2)cc1", "hERG current change (%, negative = inhibition) at 1uM": 8.54},
      {"smiles": "Cc1ccnc(NS(=O)(=O)c2ccc(NC(=O)c3ccc(C)o3)cc2)n1", "hERG current change (%, negative = inhibition) at 1uM": 6.32},
      {"smiles": "COc1ccc(OC)c(CNC(=O)c2nn(C)c3c2CS(=O)(=O)c2ccccc2-3)c1", "hERG current change (%, negative = inhibition) at 1uM": 19.4},
      {"smiles": "Cc1ccc(NN=C2c3ccccc3-c3ccccc32)cc1.Cl", "hERG current change (%, negative = inhibition) at 1uM": 14.8},
      {"smiles": "Cc1ccc(Nc2cc(C)nc3ncnn23)cc1", "hERG current change (%, negative = inhibition) at 1uM": 13.9},
      {"smiles": "CCOc1cccc(=O)c2c(C)n(Cc3ccccc3)c(C)c12", "hERG current change (%, negative = inhibition) at 1uM": 5.91},
      {"smiles": "CC(C)NC(=O)C(=O)NCCN1CCN(S(=O)(=O)c2ccc(Cl)cc2)CC1", "hERG current change (%, negative = inhibition) at 1uM": -13.1},
      {"smiles": "O=C(Oc1ccccc1)c1cccc(COC(=O)c2cnccn2)c1", "hERG current change (%, negative = inhibition) at 1uM": 1.89},
      {"smiles": "O=C(NNC(=O)c1ccccc1O)c1ccc(NS(=O)(=O)c2ccc(F)cc2)cc1", "hERG current change (%, negative = inhibition) at 1uM": 13},
      {"smiles": "O=C(OCc1cn(Cc2ccccc2)nn1)c1ccccc1", "hERG current change (%, negative = inhibition) at 1uM": 8.15},
      {"smiles": "CCS(=O)(=O)N1CCC(C(=O)N2CCN(Cc3ccccc3)CC2)CC1", "hERG current change (%, negative = inhibition) at 1uM": 3.79},
      {"smiles": "CCOC(=O)C1CCN(/C=C2/C(=O)NC(=O)N(c3ccc(OCC)cc3)C2=O)CC1", "hERG current change (%, negative = inhibition) at 1uM": 5.75},
      {"smiles": "CCN(CC)C(=O)C1=C(C)Nc2nc3ccccc3n2C1c1cccc(OC)c1", "note": "(centres unmarked)", "hERG current change (%, negative = inhibition) at 1uM": 8.97},
      {"smiles": "Cc1cccc(C)c1-n1c(C)cc(/C=N/NC(=O)c2ccncc2)c1C", "hERG current change (%, negative = inhibition) at 1uM": -5.21},
      {"smiles": "CCn1c(CSc2ncn[nH]2)nc2cc(C(=O)O)ccc21", "hERG current change (%, negative = inhibition) at 1uM": 7.49},
      {"smiles": "C/C=C/C(=O)Nc1nnc(C(C)C)s1", "hERG current change (%, negative = inhibition) at 1uM": 10.9},
      {"smiles": "CCCCC1(C)Nc2ccccc2-c2nc3ccccc3n21", "note": "(centres unmarked)", "hERG current change (%, negative = inhibition) at 1uM": 19.3},
      {"smiles": "Cc1ccc2[nH]c(C(=O)O)c(-c3ccccc3)c2c1", "hERG current change (%, negative = inhibition) at 1uM": 15},
      {"smiles": "Cc1c(C(=O)O)nn(-c2cccc(C(F)(F)F)c2)c(=O)c1C#N", "hERG current change (%, negative = inhibition) at 1uM": 12.2},
      {"smiles": "CN=C1NN=C(c2cc(C)n(-c3c(C)n(C)n(-c4ccccc4)c3=O)c2C)CS1.Cl", "hERG current change (%, negative = inhibition) at 1uM": 5.63},
      {"smiles": "CC(=O)Nc1ccc(S(=O)(=O)N2CCSC2)cc1", "hERG current change (%, negative = inhibition) at 1uM": 7.34},
      {"smiles": "Cc1ccc(CNC(=O)CN2CCC(C(N)=O)CC2)cc1", "hERG current change (%, negative = inhibition) at 1uM": 4.4},
      {"smiles": "Cc1ccc(C(=O)N2CCCC(CCC(=O)N3CCN(c4ccccn4)CC3)C2)s1", "note": "(centres unmarked)", "hERG current change (%, negative = inhibition) at 1uM": -8.2},
      {"smiles": "Cl.OC(COc1ccc(Br)cc1)CN1CCC(Cc2ccccc2)CC1", "note": "(centres unmarked)", "hERG current change (%, negative = inhibition) at 1uM": -83.7},
      {"smiles": "Cc1ccc(O)c(NC(=O)c2ccc3c(c2)C(=O)N(CC(C)C)C3=O)c1", "hERG current change (%, negative = inhibition) at 1uM": 17.2},
      {"smiles": "CC(C)=NNc1nc2c(c(=O)[nH]c(=O)n2C)n1CCc1ccccc1", "hERG current change (%, negative = inhibition) at 1uM": 3.7},
      {"smiles": "COc1ccc(-n2c(C)ccc2-c2ccccc2)cn1", "hERG current change (%, negative = inhibition) at 1uM": 14.7},
      {"smiles": "C=C(C)C1Cc2c(C)nn(-c3cccc4cccnc34)c2C1", "note": "(centres unmarked)", "hERG current change (%, negative = inhibition) at 1uM": 6.3},
      {"smiles": "O=C(NNC(=O)c1ccc(-c2ccc([N+](=O)[O-])cc2)o1)c1ccncc1", "hERG current change (%, negative = inhibition) at 1uM": 0.186}
    ]}
  ]
}
